# The other results are listed elsewhere or left out. The data describe in vitro nicking of single-stranded DNA by Rep domains (3 µM enzyme, 1 h, 37 °C); shown is the middle of each 90-letter strand. Uncut reads are compared with the no-enzyme pool on a log2 scale; strong cutting gives strongly negative numbers. There is no active / inactive call. Reads are scaled to the total; uncut strands gain when others are lost, and binding without cutting may add a little.
# Legend:
# Assay in all cases: uncleaved DNA left, log2 of reads against the no-enzyme library (log2 ratio); higher = less cleavage (more negative = more Rep cleavage of the k-mer); sequences stand for … in CTCGTCCG…ACCGGAGA
# [1] = system: T1, Rep nickase domain of Muscovy duck circovirus
# T1 sequence (protein, residues 1-111, tag omitted): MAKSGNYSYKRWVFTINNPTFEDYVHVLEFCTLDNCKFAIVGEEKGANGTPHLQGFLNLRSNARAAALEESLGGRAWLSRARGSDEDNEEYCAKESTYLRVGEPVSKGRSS
# Description: (§1)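 A pool of 90-nt single-stranded DNAs with seven random bases just before the constant AC of the nick site (name = the seven bases) was cut by 3 µM recombinant His6-SUMO-tagged Rep nickase domain (300 nM DNA, 50 mM HEPES pH 8.0, 50 mM NaCl, 1 mM MnCl2, 1 h, 37 °C, three replicates). Uncut DNA was amplified and sequenced.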
# [2] = system: T2, Rep nickase domain of banana bunchy top virus
# T2 sequence (protein, residues 1-94, tag omitted): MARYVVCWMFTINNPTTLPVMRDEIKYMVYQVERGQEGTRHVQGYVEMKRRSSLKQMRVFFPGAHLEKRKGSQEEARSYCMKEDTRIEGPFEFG
# Description: as §1
# [3] = system: T3, Rep nickase domain of cabbage leaf curl virus
# T3 sequence (protein, residues 1-116, tag omitted): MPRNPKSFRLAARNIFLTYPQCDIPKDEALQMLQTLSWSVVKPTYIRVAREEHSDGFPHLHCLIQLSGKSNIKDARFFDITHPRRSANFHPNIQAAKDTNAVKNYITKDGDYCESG
# Description: as §1
# [4] = system: T4, Rep nickase domain of chickpea chlorotic dwarf virus
# T4 sequence (protein, residues 1-124, tag omitted): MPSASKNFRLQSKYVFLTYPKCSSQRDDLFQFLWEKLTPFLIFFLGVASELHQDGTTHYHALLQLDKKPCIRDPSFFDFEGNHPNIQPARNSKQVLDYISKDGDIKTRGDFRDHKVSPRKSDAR
# Description: as §1
# [5] = system: T5, Rep nickase domain of faba bean necrotic yellows virus
# T5 sequence (protein, residues 1-98, tag omitted): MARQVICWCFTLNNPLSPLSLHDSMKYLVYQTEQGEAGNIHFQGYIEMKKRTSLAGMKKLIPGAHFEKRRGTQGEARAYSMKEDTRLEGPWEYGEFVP
# Description: as §1
# [6] = system: T6, Rep nickase domain of maize striate mosaic virus
# T6 sequence (protein, residues 1-117, tag omitted): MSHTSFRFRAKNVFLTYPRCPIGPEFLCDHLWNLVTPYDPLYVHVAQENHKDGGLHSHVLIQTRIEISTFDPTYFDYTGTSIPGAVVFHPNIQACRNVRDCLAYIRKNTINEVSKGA
# Description: as §1
# [7] = system: T7, Rep nickase domain of porcine circovirus 2
# T7 sequence (protein, residues 2-116, tag omitted): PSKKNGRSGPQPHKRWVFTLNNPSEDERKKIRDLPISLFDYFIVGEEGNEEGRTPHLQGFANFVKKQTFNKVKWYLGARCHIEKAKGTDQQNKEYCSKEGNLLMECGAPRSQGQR
# Description: as §1
# [8] = system: T8, Rep nickase domain of tomato golden mosaic virus
# T8 sequence (protein, residues 1-124, tag omitted): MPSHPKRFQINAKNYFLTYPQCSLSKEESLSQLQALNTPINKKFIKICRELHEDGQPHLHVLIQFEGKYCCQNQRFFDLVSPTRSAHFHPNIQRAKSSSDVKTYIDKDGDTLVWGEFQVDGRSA
# Description: as §1
# [9] = system: T9, Rep nickase domain of tomato yellow leaf curl virus
# T9 sequence (protein, residues 1-136, tag omitted): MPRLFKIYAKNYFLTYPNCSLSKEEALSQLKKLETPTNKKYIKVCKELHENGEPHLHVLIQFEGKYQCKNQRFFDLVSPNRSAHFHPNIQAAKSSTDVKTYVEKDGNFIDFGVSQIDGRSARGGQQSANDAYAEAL
# Description: as §1
# [10] = system: T10, Rep nickase domain of wheat dwarf virus
# T10 sequence (protein, residues 1-137, tag omitted): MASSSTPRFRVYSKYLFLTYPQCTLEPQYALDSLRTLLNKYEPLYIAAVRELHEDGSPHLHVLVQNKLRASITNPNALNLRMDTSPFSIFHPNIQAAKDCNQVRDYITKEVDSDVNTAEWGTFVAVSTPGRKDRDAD
# Description: as §1
Sequence,uncleaved DNA left (log2) [1],uncleaved DNA left (log2) [2],uncleaved DNA left (log2) [3],uncleaved DNA left (log2) [4],uncleaved DNA left (log2) [5],uncleaved DNA left (log2) [6],uncleaved DNA left (log2) [7],uncleaved DNA left (log2) [8],uncleaved DNA left (log2) [9],uncleaved DNA left (log2) [10]
ACCAGCT,-0.122,-0.063,-0.482,-1.08,0.0923,-0.979,0.0547,-0.0279,0.0225,-0.0612
TTTAAAA,0.108,0.0914,0.338,0.379,0.135,0.13,0.104,0.203,0.128,0.19
TGCAGCG,-0.0689,-0.00261,-0.861,0.264,0.0976,-0.795,0.0802,-0.124,-0.0636,-0.12
TGGTGTT,-2.31,-0.279,-0.366,-1.41,-1.01,0.582,-3.19,-0.319,-0.0363,-0.492
ACCTATT,-3.28,-1.92,-1.07,-2.7,-0.13,-0.934,-3.35,-0.139,0.116,-0.657
CGACTCG,-0.084,-0.0667,-0.305,0.294,-0.0659,0.301,-0.00847,-0.131,-0.241,-0.0153
AGTTGGG,0.166,-0.0238,-0.743,-0.545,0.0486,-0.927,0.269,0.0831,0.042,-0.114
CGTCTTT,-0.126,-0.0786,-0.106,-1.45,-0.102,-0.235,-0.533,-0.102,0.04,-0.0586
TATTTGG,-0.00439,-0.0058,0.031,0.119,0.035,-0.323,0.0724,0.0114,-0.00821,-0.00127
CGACTTG,-0.0334,-0.0449,0.0113,0.65,0.0453,1.6,-0.0738,-0.236,-0.103,0.00803
TCCTAAA,0.145,0.148,0.324,0.0183,0.189,-0.318,0.134,0.173,0.129,0.164
ATGAGAC,-0.00274,-0.0183,0.261,0.781,-0.0198,0.0979,0.238,0.00851,-0.0458,0.0498
GGTTGAG,0.158,0.077,-0.23,0.316,0.122,-0.458,0.304,0.0395,0.198,0.0635
CTCACCA,0.0662,0.0394,-0.131,-1.53,-0.0527,-0.47,-0.314,-0.112,0.174,0.126
TTTCCCT,-0.734,-0.0578,-0.102,-2.24,-0.102,-0.464,-2.76,-0.241,-0.0169,-0.0667
CAAAGCC,0.0538,0.0412,-0.31,-0.688,-0.012,-0.872,0.0584,-0.0476,-0.000114,-0.0778
CAAGTTG,0.025,-0.0473,0.392,1.26,0.0736,1.42,0.202,0.0995,-0.11,-0.0568
GTATCTC,-0.0353,0.0604,0.352,0.868,-0.00487,1.61,0.129,0.0748,0.124,0.0697
AGGTGCG,-0.0226,-0.0741,-0.132,1.11,0.0413,0.868,0.178,0.0194,0.0146,-0.147
TACGAAT,0.0373,-0.0703,-0.347,-2.13,-0.043,-0.138,-0.354,0.0896,-0.0735,0.00111

Sequence,uncleaved DNA left (log2) [1],uncleaved DNA left (log2) [2],uncleaved DNA left (log2) [3],uncleaved DNA left (log2) [4],uncleaved DNA left (log2) [5],uncleaved DNA left (log2) [6],uncleaved DNA left (log2) [7],uncleaved DNA left (log2) [8],uncleaved DNA left (log2) [9],uncleaved DNA left (log2) [10]
AAGACCT,0.132,0.033,0.0899,-0.453,-0.028,0.694,-3.46,-0.0992,0.0376,0.0984
TGTGCTC,-0.0177,-0.0124,0.127,0.22,-0.0306,0.277,-0.0225,-0.125,-0.0581,-0.0187
GGCGGAA,0.12,0.11,0.336,1.07,0.127,1.18,0.154,0.107,0.0255,0.0126
CCGGAAT,0.109,0.0789,0.368,0.93,-0.1,1.32,0.138,0.147,0.055,-0.043
TAGTACT,-3.78,-3.98,-3.49,-3.26,-3.86,-1.55,-4.28,-2.87,0.0909,-2.41
TAACTAT,-0.103,-0.0472,-3.19,-3.48,-0.0662,-1.17,-0.351,-0.67,-0.00416,-2.6
ACATGAG,-0.0411,0.0805,-0.254,1.07,0.122,0.266,0.253,0.0659,0.319,0.0664
ATCAACA,-0.0414,0.0192,-0.132,-2.45,-0.0688,-0.699,-0.0316,0.0511,0.0138,0.00993
ACACAAG,-0.0132,-0.0497,-0.586,0.313,0.0267,-0.526,0.251,-0.0738,0.089,-0.00841
GAGATTT,0.086,-1.1,0.476,-0.469,-0.457,1.63,-3.03,0.146,0.128,0.166
CTCAGTC,0.0134,0.0842,0.0312,-0.168,0.137,-0.856,0.031,-0.0667,0.0172,-0.0532
TACGTTC,-0.0243,-0.159,-0.0604,-1.65,-0.012,-0.54,-0.162,-0.157,-0.0719,-0.274
CTCCAAG,-0.0458,-0.0323,-0.747,-0.307,-0.18,-1.23,0.0798,0.0486,0.14,0.131
TTTCACG,0.000688,0.0141,-0.733,-0.95,0.0403,-1.27,0.0501,-0.0726,-0.102,-0.114
CTTTCGT,0.0294,0.0235,-0.508,-1,0.0777,-1.18,-0.105,-0.17,0.1,-0.154
ATGTCCG,0.169,0.0878,-0.72,-0.0178,0.244,-0.893,0.274,0.0216,0.0483,-0.0338
GGCAAAT,-0.0656,0.0904,0.726,1.69,-0.0532,2.08,0.121,-0.0335,0.046,0.16
ACACAGT,-0.00779,0.04,-0.446,-0.719,-0.00419,-0.611,0.0692,0.0921,-0.0719,-0.137
CGGGGGT,-0.0771,-0.0891,0.363,1.19,0.0523,1.83,0.282,-0.0435,-0.0565,-0.0775
TACCGAC,-0.00844,-0.0806,0.0687,-0.0113,0.0814,-0.528,0.136,0.0636,-0.0117,-0.04

Sequence,uncleaved DNA left (log2) [1],uncleaved DNA left (log2) [2],uncleaved DNA left (log2) [3],uncleaved DNA left (log2) [4],uncleaved DNA left (log2) [5],uncleaved DNA left (log2) [6],uncleaved DNA left (log2) [7],uncleaved DNA left (log2) [8],uncleaved DNA left (log2) [9],uncleaved DNA left (log2) [10]
AAAGAAA,0.0341,0.00202,0.0795,-0.254,0.0671,-0.235,0.122,0.0893,-0.0402,0.0694
CATTCAT,-1.78,-3.05,-0.102,-1.46,0.0274,-0.768,-3.48,0.0593,0.0731,0.0558
CATAGAC,0.161,0.0115,0.192,0.244,0.0254,-0.759,0.207,0.0296,-0.0496,0.0912
AGCAGTC,0.111,0.0452,0.118,0.431,0.16,-0.0566,0.0356,0.128,-0.0237,0.0563
GCGGGTT,-0.0521,0.0461,0.336,0.739,0.0194,1.47,0.03,0.0119,-0.0719,-0.00164
CACATCA,0.0507,0.133,0.00574,-1.77,0.0459,-0.412,0.105,0.0388,0.122,0.0837
GTCGAAG,-0.153,0.0281,0.183,0.713,-0.0138,1.66,0.061,0.0983,0.00713,-0.0229
GACATAT,-0.129,-0.144,0.446,1.02,-0.144,1.64,-0.0639,-0.122,-0.0563,0.0124
CCGCCAC,-0.0765,-0.0174,0.079,-0.308,-0.00375,-0.55,-0.0193,-0.0103,-0.0295,-0.0169
GATTATG,-0.0295,-0.0879,-0.34,-0.265,-0.0405,-0.88,-0.109,-0.078,0.0306,-0.0481
CGCTCTG,0.159,0.0405,0.118,0.604,0.0988,1.3,0.175,0.0289,0.0242,0.224
GCAGACT,0.0464,0.101,0.21,0.297,0.0937,1.31,0.118,0.148,-0.0412,0.0571
GGCTCGA,0.157,0.101,0.346,0.921,0.0827,1.21,0.15,0.141,0.132,0.0551
GGGTTTC,-0.0825,0.0357,0.528,1.44,-0.0992,1.98,0.0734,-0.0989,-0.0713,0.00452
TGATGTT,-3.33,-0.535,-2.06,-2.91,-0.165,-1.52,-3.42,-0.789,-0.0369,-2.6
AAGGCTA,0.0277,-0.00385,0.021,0.136,0.0182,0.799,0.068,0.102,-0.122,0.000518
CGGATTA,0.0307,0.0341,0.121,0.0811,-0.0437,0.472,0.0208,0.00214,-0.07,0.122
ATATTGC,0.0812,0.0582,-0.373,0.817,0.16,-0.134,0.244,-0.0729,0.166,-0.023
CTCCCTC,-0.0155,-0.123,0.0658,-0.2,-0.153,-0.355,-0.113,-0.167,-0.0386,-0.00355
CGAGGTA,-0.0258,-0.0534,0.0304,0.242,-0.119,0.426,-0.325,0.00619,0.0314,0.00474

# From the supplement of paper PMC7826260
